Whole data set: some 110,000 compounds, median “z-score” near -0.1, cut for the highest 2% near 2. The list shows a part of the results. Activity calls are given as the source filed them.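 How the source made its calls: active means z-score in the third read window above 3 or below -3; inactive means the rest.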
Target: Metabotropic glutamate receptor 8 (Rattus norvegicus) (UniProt P70579)
Assay: rat mGluR8 modulators via GIRK flux, primary screen, cell-based, thallium flux, HTS (AID 488969)
Settings: HEK293 rat mGluR8, GIRK (G protein-gated inwardly rectifying potassium channel) thallium flux, FluoZin2; at 10 µM; stronger effect = higher value; submaximal glutamate (EC20) added with thallium

UniProt P70579, sequence (P70579 whole entry, looked up): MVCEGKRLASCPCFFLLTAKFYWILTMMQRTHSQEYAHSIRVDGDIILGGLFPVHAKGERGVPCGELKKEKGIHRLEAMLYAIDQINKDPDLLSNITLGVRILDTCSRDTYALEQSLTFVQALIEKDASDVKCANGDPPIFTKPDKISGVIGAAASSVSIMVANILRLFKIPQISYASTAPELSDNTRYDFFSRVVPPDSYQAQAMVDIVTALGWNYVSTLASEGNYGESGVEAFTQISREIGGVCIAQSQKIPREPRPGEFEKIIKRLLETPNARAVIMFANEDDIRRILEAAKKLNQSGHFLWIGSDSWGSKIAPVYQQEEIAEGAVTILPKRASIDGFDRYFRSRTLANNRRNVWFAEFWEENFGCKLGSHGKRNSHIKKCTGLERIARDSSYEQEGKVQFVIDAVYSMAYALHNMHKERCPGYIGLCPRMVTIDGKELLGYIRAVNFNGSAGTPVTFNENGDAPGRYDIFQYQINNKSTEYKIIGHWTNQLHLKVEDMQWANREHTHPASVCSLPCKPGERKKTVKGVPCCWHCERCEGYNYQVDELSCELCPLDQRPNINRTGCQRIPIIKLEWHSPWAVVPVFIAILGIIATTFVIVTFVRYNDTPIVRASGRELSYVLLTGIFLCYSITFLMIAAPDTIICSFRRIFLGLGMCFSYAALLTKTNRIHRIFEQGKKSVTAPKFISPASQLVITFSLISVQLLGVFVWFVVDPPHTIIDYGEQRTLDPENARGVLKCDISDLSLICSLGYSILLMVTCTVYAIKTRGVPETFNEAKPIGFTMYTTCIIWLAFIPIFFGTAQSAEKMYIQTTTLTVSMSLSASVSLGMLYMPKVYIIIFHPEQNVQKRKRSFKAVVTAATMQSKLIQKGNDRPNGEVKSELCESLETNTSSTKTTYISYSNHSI

SMILES | z-score
Cc1ccc(NC(=O)COc2nc(C)cs2)cc1 | 0.182
Cc1ccc(C(=O)Nc2ccc([N+](=O)[O-])cn2)o1 | -0.447
COc1ccc(-c2[nH]ncc2/C=N\NC(=O)c2ccc(C(C)(C)C)cc2)cc1OC | -0.413
CCCCCC(=O)Nc1c(-c2ccc(OC)cc2)c(=O)c2ccccc2n1C | 0.109
CCCNC(=O)COC(=O)c1ccccc1OCc1ccc(Cl)cc1 | -0.833
Cc1nc(NC(=O)c2ccc(Cl)cc2)sc1-c1csc(Nc2cccc(F)c2)n1 | -0.184
COc1ccc(C(=O)Nc2cc(C(=O)NCCc3ccccc3)ccc2Cl)cc1 | -0.128
CCOC(=O)c1c(N)sc2c1CCSC2 | -0.273
C/C(CCC12CC3CC(CC(C3)C1)C2)=N\NC(N)=S | -0.636
CCOC(=O)CSc1nnc(C)c(=O)[nH]1 | -0.0243
Cc1nc2cc3nc(C(F)(F)F)[nH]c3cc2[nH]1 | -0.218
CCn1c(CNc2ccc(F)cc2)nnc1SCC(=O)Nc1ccccc1OC | -1.06
O=C(COc1ccc(S(=O)(=O)N2CCCC2)cc1Cl)Nc1ccc2c(c1)OCO2 | 0.222
CC1=CN2C(=N)/C(=C/c3ccco3)C(=O)N=C2S1 | -0.13
CCOC(=O)C1=C(C)NC(=O)NC1c1cccc(O)c1 (stereo not given) | -0.126
CCSC1=NCN(CCCC(=O)O)CN1 | 0.999
CCOC(=O)C1=C(c2ccc(OC)cc2)C(=O)c2ccccc2C1=O | -0.347
COc1ccc(S(=O)(=O)n2nc(OC(=O)c3c(-c4ccccc4Cl)noc3C)cc2N)cc1 | -0.976
NC(=O)c1cc2nc(-c3ccco3)cc(C(F)(F)F)n2n1 | -0.0931
CC1(C)C(c2ccccc2)=NC(c2ccccc2)N1O (stereo not given) | -0.299
COc1ccc(CCNC(=O)CC2COc3ccccc3O2)cc1OC (stereo not given) | -0.214
COc1ccc(-c2csc3nc(-c4cccnc4)nc(Cl)c23)cc1OC | -0.77
CC(=O)OC1CC(n2ccc(NC(=O)c3ccccc3)nc2=O)OC1CO (stereo not given) | 0.698
Cc1ccc(C(=O)Nc2cc3c(cc2Cl)OCCCO3)cc1 | 0.00202
O=C(NNC(=O)c1ccc2ccccc2c1O)c1ccccc1Cl | 0.142
O=C(Nc1ccccn1)C1COc2ccccc2O1 (stereo not given) | -0.278
CCOC(=O)CSc1nc(N2CCOCC2)c2c(c1C#N)CC(C)(C)N(C)C2 | -0.514
Cc1ccc(-n2c(=O)c3sccc3n(Cc3cc(=O)n4ccccc4n3)c2=O)cc1 | -0.518

SMILES | z-score
Cc1cc(C)n(Cc2ccc(NC(=O)c3c([N+](=O)[O-])c(C)nn3C)cc2)n1 | -0.127
O=C(COC(=O)Cn1nnc2ccccc21)Nc1ccccc1Br | -0.647
CCOC(=O)C(C)Sc1nnc(Cc2cc(=O)[nH]c(=O)[nH]2)n1-c1ccc(Cl)cc1 (stereo not given) | 0.496
COCCNc1nc2sc3c(c2c(=O)n1Cc1ccco1)CCCCC3 | 1.48
CCOC(=O)C(Cc1ccccc1)(NC(C)=O)C(=O)OCC | -0.647
O=C(N/N=C/c1cc([N+](=O)[O-])cc([N+](=O)[O-])c1O)/C(=C\c1cccs1)NC(=O)c1ccccc1 | -0.0731
COc1cccc(NC(=S)NNC(=O)c2c([N+](=O)[O-])c(C)nn2C)c1 | 0.0976
O=C(c1ccccc1)C1CN(c2ccccc2)CC1c1ccc(Cl)cc1 (stereo not given) | -0.113
CC1CN(c2nc3ccccn3c(=O)c2/C=C(\C#N)S(=O)(=O)c2ccccc2)CC(C)O1 (stereo not given) | -0.181
COc1cccc(NC(=S)NCc2ccncc2)c1 | -0.0527
O=[N+]([O-])c1ccc(-c2cc(-c3ccncc3)nc3ccc4ccccc4c23)cc1 | 0.867
Cc1ccc(CNC(=O)COC(=O)c2ccc(S(=O)(=O)N3CCCC3)cc2)cc1 | -0.0232
CCC(C)c1ccc(O)c(NC(=O)c2cncc(Br)c2)c1 (stereo not given) | -0.67
COc1cccc(OC)c1C(=O)Nn1c(-c2cccs2)nc2ccccc2c1=O | 0.43
C=CCn1c(=O)c2c3c(sc2n2c(Nc4ccccc4)nnc12)CCCC3 | -0.981
CSc1ccc(C#N)cc1NC(=O)c1ccc(Cl)cc1 | -0.0404
COC(=O)c1sc(NC(=O)COc2ccccc2)nc1C | 0.609
CC(C)(C)n1nnnc1C(c1ccncc1)N1CCN(c2ccc(O)cc2)CC1 (stereo not given) | -0.311
CN1C2C=C3C(C#N)=C(N)C(C#N)(C#N)[C@H](c4c(F)cccc4F)[C@H]3C1CC2 (stereo not given in full) | -0.484
CCOc1cc2[nH]c(=S)n(CCC(=O)NCc3ccc(OC)cc3)c(=O)c2cc1OCC | -0.239
Cc1ccc(NC(=O)c2ccco2)c(NC(=O)Cc2cccs2)c1 | 0.0723
O=C(NCc1ccc(F)cc1)c1cnc(-c2ccccn2)nc1C(F)(F)F | -0.0654
CCn1c2ccccc2c2cc(/C=N/n3cn[nH]c3=S)ccc21 | active: 11.5
O=C1c2ccccc2C(=O)N1Nc1ccccc1 | active: 4.88
CC(=O)N/C(=C/c1ccc(OC(F)F)cc1)C(=O)O | -0.292
O=C(c1ccc(O)cc1)c1ccc(Cl)cc1 | -0.563
Cc1ccc(-c2nnn(CC(=O)N(c3ccc(F)cc3)C(C(=O)NC(C)(C)C)c3ccco3)n2)o1 (stereo not given) | -0.139

— PubChem BioAssay AID488969 (Vanderbilt High Throughput Screening Facility, 2010)
